# Results taken from paper PMC10668032.
# Some of the results follow. At the low end of the ranking, values are background and their order means little.
# Molecular target: SIX1 homeodomain (reference allele) (UniProt Q15475)
# Experiment: universal protein binding microarray
# Conditions: Universal all-10-mer PBM (8x60K, AMADID 030236), 300 nM GST-tagged protein, Alexa Fluor 488 anti-GST; buffer, salt, pH and temperature not stated; high values mean tight binding; most listed sequences are background and not binding sites; double strand, one strand shown
row,Sequence,binding signal
1,TGCGCGCA,0.0228 E-score
2,ATCATAAT,0.229 E-score
3,ACCTTGGG,0.157 E-score
4,ATCATCGA,0.284 E-score
5,GGGCGGTA,0.217 E-score
6,CGACATCC,-0.0112 E-score
7,ATTCCGCA,-0.0491 E-score
8,GCGTGGGA,-0.122 E-score
9,AGGATCAG,0.368 E-score
10,CTAGACAA,-0.246 E-score
11,AACGGCCT,-0.108 E-score
12,AAATTGAA,-0.328 E-score
13,AGAAGACA,-0.00308 E-score
14,AAGACAAA,-0.223 E-score
15,GTTTACGA,-0.154 E-score
16,ACATAATC,0.114 E-score
17,GAGATGTA,0.215 E-score
18,ATCTTGCA,0.216 E-score
19,CCCTTACC,-0.0984 E-score
20,GTGCCAGA,-0.134 E-score
21,TGCCTAAA,-0.206 E-score
22,ATTTAAAT,-0.143 E-score

row,Sequence,binding signal
1,AGCCTACG,-0.0694 E-score
2,GTGCTACA,-0.115 E-score
3,TAGCCAAA,0.0299 E-score
4,CGCCTTAC,-0.0226 E-score
5,TTGGACAA,-0.191 E-score
6,CCACTGCG,-0.0653 E-score
7,AACATCAG,-0.258 E-score
8,ACGTGCGG,-0.172 E-score
9,ATACTAGG,0.275 E-score
10,CAAGCAAG,-0.346 E-score
11,AGAAGTTC,-0.277 E-score
12,ATTCGATG,-0.146 E-score
13,AGCATTAA,-0.176 E-score
14,TCAGACAA,-0.107 E-score
15,AATCACCG,-0.152 E-score
16,GGCTACGA,0.0415 E-score
17,CTGTTCAA,-0.197 E-score
18,AAATTCAA,-0.209 E-score
19,CGTATCTA,0.349 E-score
20,CCAAAAGG,-0.208 E-score
21,ACGGAAAT,-0.218 E-score
22,TAGCTAAA,-0.0454 E-score

row,Sequence,binding signal
1,TTAGACAA,-0.0367 E-score
2,GAGCGCGA,-0.0356 E-score
3,AAGCTCAA,-0.257 E-score
4,GAGTTAAC,-0.106 E-score
5,GAGAACGA,-0.0402 E-score
6,CCTGTCCG,-0.0832 E-score
7,GTGGCCCA,-0.217 E-score
8,CATGGACG,0.0317 E-score
9,TAATGCGA,-0.0292 E-score
10,AGCGATAT,0.42 E-score
11,CGAACTTA,-0.304 E-score
12,CGTTGAGA,0.0607 E-score
13,AAAACGAG,-0.181 E-score
14,CTATGAAA,0.0478 E-score
15,AATATTCG,-0.0172 E-score
16,GCCAGCCA,-0.226 E-score
17,CGCGAGCG,-0.204 E-score
18,CTGCATTC,-0.216 E-score
19,ACCAGCCG,-0.0904 E-score
20,ACATGCCC,0.029 E-score
21,CCCGCCCG,0.123 E-score
22,AGCGGCCT,-0.258 E-score

row,Sequence,binding signal
1,GATTTAAC,-0.22 E-score
2,CGTCTGTC,0.0124 E-score
3,CACGGACG,-0.0547 E-score
4,GATGCCCA,0.145 E-score
5,CTTTATCA,-0.0954 E-score
6,GCCAACGC,-0.144 E-score
7,GTGTGCTA,0.0518 E-score
8,AGGCAACA,-0.101 E-score
9,ATTAACAG,-0.068 E-score
10,CTAACGCC,-0.154 E-score
11,CAGCGGGA,-0.00724 E-score
12,TCTGGGAA,-0.191 E-score
13,ACTACCAA,-0.101 E-score
14,ACAAATCT,-0.259 E-score
15,GGACAGTA,0.00783 E-score
16,GCCTGTTA,-0.0126 E-score
17,CTTGGGCA,0.0194 E-score
18,AATCCGTG,0.195 E-score
19,TCTGGTCA,-0.13 E-score
20,ATTCACTG,-0.3 E-score
21,CATCAGGG,-0.0117 E-score
22,GAAAACTA,-0.00681 E-score

row,Sequence,binding signal
1,AAAAATTA,-0.186 E-score
2,GGGCCGAC,-0.0964 E-score
3,TAATCTGA,0.131 E-score
4,AAACAGGC,-0.284 E-score
5,AATAGATG,0.101 E-score
6,CCTCAAGA,-0.179 E-score
7,CACTGGGA,-0.105 E-score
8,AGTTTTGG,-0.0742 E-score
9,GCCTTCTA,0.0386 E-score
10,CAGTTAGA,-0.112 E-score
11,AGTGCTTG,-0.056 E-score
12,AATATTTG,-0.263 E-score
13,AGGGATCA,0.449 E-score
14,ATGACCAT,-0.0591 E-score
15,CCGGGCAA,0.0047 E-score
16,CCCTCCAC,-0.101 E-score
17,CGGTGGTC,-0.0322 E-score
18,CGTTCGAG,-0.102 E-score
19,GTACGTAA,-0.106 E-score
20,GTATACTA,0.344 E-score
21,GTCTCGAA,0.0087 E-score
22,CTTGTCTC,-0.116 E-score
